PubChem BioAssay (NCI)
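Results reflect a 48-hour exposure of cells in 96-well plates to compound at five concentrations. GI50 marks 50% less growth. TGI: total growth inhibition.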

The molecules below were run on NCI-H322M lung (assay: growth of human tumour cells (NCI), 48 h).

What does the source list for `Cc1cc(=O)oc2cc(OCCOc3ccc(/C=C/C(=O)Nc4ccccc4N)cc3)ccc12`?
GI50: > 100000 nM; TGI: > 100 µM

For `O=C(CNc1nc(-c2ccccc2)cs1)Nc1ccccc1`, which GI50 is on record?
Its GI50 is 1620 nM.

And the TGI?
Its TGI is 3.21 µM.

How did the GI50 turn out when `CCc1ccccc1NC(=O)N/C(N)=N/c1nc2ccccc2s1` was run?
Its GI50 is 92.5 nM.

And the TGI?
Its TGI is 38 µM.

Which GI50 does the source give for `O=C(NO)c1ccc(CNc2nc(-c3ccccc3)c3ccccc3n2)cc1` here?
Its GI50 is 2780 nM.

And the TGI?
The TGI was > 19.7 µM.

`CCCCSc1nc(Nc2ccc(S(N)(=O)=O)cc2)c(C#N)c(-c2ccc(Cl)cc2)n1` was tested. Which GI50 did it give?
Its GI50 is 11200 nM.

What about the TGI of the same molecule?
Its TGI is 39.1 µM.

With `S=C(Nc1ccc(OCc2nc3ccc(Cl)cc3[nH]2)cc1)NC1CCCCC1` as the molecule, how does the GI50 read?
The GI50 was 10100 nM.

And the TGI?
Its TGI is 21.7 µM.
